Results published in the antibiotic and cytotoxicity screens of Wong et al. (2023).
Some of the results follow.

Test system: S. aureus RN4220
Test: growth inhibition call (relative growth <= 0.2)
Settings: 50 µM

Growth inhibition call, inactive:
C[C@@H]1CN([C@@H](C)CO)C(=O)c2cc(NC(=O)c3ccncc3)ccc2O[C@@H](C)CCCCO[C@@H]1CN(C)C(=O)NC1CCCCC1, COC(=O)C[C@H]1CC[C@@H]2[C@H](COC[C@H](O)CN2S(=O)(=O)c2ccc(F)cc2)O1, CCO/N=[N+](\[O-])N1CCCC1, CO[C@@H]1CN(C)C(=O)c2ccc(NS(=O)(=O)c3cn(C)cn3)cc2OC[C@@H](C)N(CCC(F)(F)F)C[C@@H]1C, CC(=O)N[C@@H](C=O)[C@@H](O)[C@H](O)[C@H](O)CO, C[C@@H](Nc1nc(=O)cc(F)[nH]1)C(=O)O, C[C@H](CO)N1C[C@H](C)[C@@H](CN(C)S(=O)(=O)c2ccc3c(c2)OCCCO3)OCc2cnnn2CCCC1=O, CC(C)(C)[S@@](=O)N1Cc2cc(C(=O)NC3CCC3)nc(-c3cccc(-c4ccccc4F)c3)c2[C@H]1CCO, C[C@]1(C(=O)NCc2ccccc2)c2ccccc2C(=O)N(Cc2ccc(OC(F)(F)F)cc2)[C@H]1c1ccc(CO)cc1, O=C(C[C@H]1CC[C@H](NC(=O)c2ccc(F)cc2)[C@H](CO)O1)NCc1ccncn1, CN(C)CCN(Cc1ccccc1)c1ccccn1.O=C(O)CC(O)(CC(=O)O)C(=O)O, Cc1ccc(S(=O)(=O)Nc2ccc3c(c2)CC(=O)N([C@@H](C)CO)C[C@@H](C)[C@H](CN(C)Cc2ccncc2)O3)cc1, C[C@H](CO)N1C[C@H](C)[C@@H](CN(C)S(=O)(=O)c2cn(C)cn2)Oc2ccc(NS(=O)(=O)c3ccccc3)cc2C1=O, C[C@@H]1CCCCO[C@@H](CN(C)S(=O)(=O)c2cccs2)[C@H](C)CN([C@@H](C)CO)C(=O)c2cc(NC(=O)Cc3ccccc3)ccc2O1, C[C@@H]1CN([C@H](C)CO)C(=O)c2cccc(NS(=O)(=O)c3ccc(Cl)cc3)c2O[C@H]1CN(C)C(=O)Nc1ccc(C(F)(F)F)cc1, Cc1ccc(S(=O)(=O)NCCOc2nc(N(C)C)nc(N3CCOCC3)n2)cc1, C[C@H]1CN([C@@H](C)CO)S(=O)(=O)c2ccc(C#CC3(O)CCCC3)cc2O[C@H]1CN(C)C(=O)Cc1ccccc1, C[C@@H]1CN([C@H](C)CO)C(=O)c2cc(NC(=O)c3ccccc3)ccc2O[C@@H](C)CCCCO[C@H]1CN(C)S(=O)(=O)c1ccc(F)cc1, C[C@@H]1CN([C@@H](C)CO)C(=O)c2cc(NS(=O)(=O)c3cccs3)ccc2O[C@@H](C)CCCCO[C@H]1CN(C)C(=O)c1ccccc1, C[C@@H]1CN([C@H](C)CO)C(=O)c2cc(N(C)C)ccc2O[C@@H](C)CCCCO[C@H]1CN(C)S(=O)(=O)c1cn(C)cn1, COc1ccc(CN(C)C[C@@H]2OCCCC[C@@H](C)Oc3ccc(NC(=O)Nc4ccc(C(F)(F)F)cc4)cc3C(=O)N([C@H](C)CO)C[C@H]2C)cc1, CCCCCCCCCCCCCCCCCC(=O)OC[C@@H](COP(=O)(O)OCC[N+](C)(C)C)OC(=O)CCCCCCCCCCCCCCCCC, Cn1c(=O)c2c(ncn2CC2OCCO2)n(C)c1=O, N#C[C@H](c1ccccn1)N1CCOCC1, O=C(C[C@H]1C[C@@H]2c3cc(NC(=O)NC4CCCC4)ccc3O[C@@H]2[C@H](CO)O1)NCc1ccc2c(c1)OCO2, C[C@H]1CN([C@@H](C)CO)C(=O)c2cc(/C=C/c3ccccc3)cnc2O[C@@H]1CN(C)S(=O)(=O)c1cn(C)cn1, Fc1ccccc1[C@H]1Nc2ccc3ccccc3c2[C@H]2C=CC[C@@H]21, CC(C)NC(=O)N(C)C[C@H]1Oc2ccc(NC(=O)NC3CCCCC3)cc2C(=O)N([C@H](C)CO)C[C@@H]1C, Cc1noc(C)c1NC(=O)N(C)C[C@H]1Oc2ccc(NS(=O)(=O)c3ccccc3)cc2C(=O)N([C@@H](C)CO)C[C@@H]1C, Cc1noc(C)c1S(=O)(=O)Nc1ccc2c(c1)C(=O)N([C@@H](C)CO)C[C@@H](C)[C@H](CN(C)S(C)(=O)=O)OCCCC[C@@H](C)O2, O=C1OCCC/C=C\[C@H]2O[C@@]34C=CCN(c5ccc6ccccc6c5)C(=O)[C@H]3N(CCCCCO)C(=O)[C@@H]4[C@@H]12, O=C(NCCO)c1cc2ccccc2c(=O)s1, COc1ccccc1NC(=O)N(C)C[C@H]1Oc2cc(Br)ccc2S(=O)(=O)N([C@@H](C)CO)C[C@@H]1C, C[C@H]1CN([C@@H](C)CO)C(=O)c2cccc(NC(=O)Nc3cccc4ccccc34)c2O[C@@H]1CN(C)C(=O)Nc1ccccc1, Cc1ccc(S(=O)(=O)Nc2ccc3c(c2)C(=O)N([C@H](C)CO)C[C@@H](C)[C@H](CN(C)Cc2ccc(-c4ccccc4)cc2)O3)cc1, C[C@H](CO)N1C[C@H](C)[C@@H](CN(C)C(=O)Nc2ccc(C(F)(F)F)cc2)OCCCC[C@H](C)Oc2ccc(N(C)C)cc2C1=O, CCCN(C)C[C@H]1OCCCC[C@@H](C)Oc2ccc(NS(C)(=O)=O)cc2C(=O)N([C@H](C)CO)C[C@@H]1C, CC(C)=C[C@H]1[C@@H](c2nc3cc(Br)ccc3o2)C1(C)C, CC(C)NC(=O)N(C)C[C@H]1Oc2c(NS(=O)(=O)c3cccs3)cccc2C(=O)N([C@@H](C)CO)C[C@H]1C, CCCC#Cc1ccc2c(c1)O[C@@H](CN(C)Cc1ccc3c(c1)OCO3)[C@H](C)CN([C@@H](C)CO)S2(=O)=O
